± gives the standard deviation. Only a part is listed here, and it is no random draw.
Tested on: MIWI (PIWIL1) piRISC loaded with L1MC piRNA (30 nt)
Assay: pre-steady-state target cleavage rate (min^-1); MIWI and MILI are mouse PIWI proteins and EfPiwi is from a freshwater sponge; tags in brackets are library labels; higher = faster piRNA-guided slicing of the target
Conditions: guide: L1MC piRNA 5'p-UAACUAAAUACUAUGCAAGCUGUAGGUCCU; auxiliary factor: 500 nM mouse GTSF1
Method in brief: (§1)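 Cleave-'n-Seq: a transcribed, DNA-blocked target RNA library (0.1 nM) was mixed with 1 nM active affinity-purified piRISC carrying one synthetic guide, with or without 500 nM GTSF1 partner protein, in HEPES–potassium acetate buffer at 33 °C for 0–8 or 0–960 min. Uncleaved targets were sequenced and normalised to depth and to weakly complementary targets. Three trials were pooled, and k3 was capped at 0.0001 min^-1. The pre-steady-state cleavage rate came from a burst-and-steady-state fit.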

Sequence | pre-steady-state target cleavage rate
UCCUGGAUGAGCUUAGCAUAGUAUUUAGUUA | 0.55 ± 0.033
UCCUGGAUGAGCUUGCAUAGAAUUUACUUA | 0.102 ± 0.027
AGGACCUACAGCUUGCAUAGUAUAUAGAUA | 0.339 ± 0.049
UCCUGGAUCAGCUUGCAUAGUAAUUACUUA | 0.116 ± 0.018

Same assay, conditions: guide: L1MC piRNA 5'p-UAACUAAAUACUAUGCAAGCUGUAGGUCCU; auxiliary factor: none (no GTSF1)

Sequence | pre-steady-state target cleavage rate
UCCUGGAUGAGCUUAGCAUAGUAUUUAGUUA | 0.0102 ± 0.0031
UCCUGGAUGAGCUUGCAUAGAAUUUACUUA | 0.00595 ± 0.0027
AGGACCUACAGCUUGCAUAGUAUAUAGAUA | 0.0149 ± 0.0051
UCCUGGAUCAGCUUGCAUAGUAAUUACUUA | 0.00861 ± 0.0025

Tested on: MIWI (PIWIL1) piRISC loaded with piRNA #1 (30 nt)
Assay: as above
Conditions: guide: piRNA #1 5'p-UGAGGUAGUAGGUUGUAUAGUAUCCAGAGG; auxiliary factor: 500 nM mouse GTSF1
Method in brief: as §1

Sequence | pre-steady-state target cleavage rate
GCUCUGGAUACUAUACAAGCUACUACCUGA | 0.873 ± 0.057
GGACUGGUUACUAUACAAGCUACUACCUCA | 0.962 ± 0.081
GGAGACCUAUGUAUACAACCUACUACCUUCA | 0.0147 ± 0.0029
GCUCUGGUUACUAUACAACCUACUACCACA | 2.3 ± 0.24
GGAGACGAUACUAUACAACCUACUUCCACA | 0.237 ± 0.052
GGAGACGAUACUAUACAACCAUCUACCUCA | 0.0561 ± 0.011
GGAGACCUAACUUUACAACGUACUACCUCA | 0.00883 ± 0.0044
GGAGACCUAUCUAUACAACCUACAUGGAGA [g8:g20:cont:t1A] | 0.00396 ± 0.0031
GGUCUGGAUAGUAUACAACGUACUACCUCA | 0.319 ± 0.047
GGAGACCUUACUAUACAUCCUACUAGCUCA | 0.433 ± 0.041
GGAGACCUAAGUAUACAACCUACUUCCUCA | 0.00667 ± 0.0026
GGUCUGGCUACUAUACAACCUACUACCUCA | 1.99 ± 0.11
CCUCUGGAUACUAUACAACCUACUACCUAA | 1.9 ± 0.1
GGAGACGAUACUAUACAACCUACGUACCUCA | 0.685 ± 0.055
GGUCUGGAUACUAUACAACCAUGAUGGAGA [g11:g28:cont:t1A] | < 0.0001

Source: the supplement of paper PMC10338343
